In PMC12136788:
Some of the results follow.

T1: UNK ZnF1-3 (human, UniProt Q9C0B0 31-174)
T1 sequence: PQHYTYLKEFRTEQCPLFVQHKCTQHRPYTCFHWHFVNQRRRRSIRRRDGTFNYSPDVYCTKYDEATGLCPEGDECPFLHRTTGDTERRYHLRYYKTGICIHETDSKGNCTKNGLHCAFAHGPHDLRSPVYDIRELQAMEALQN

B1: chr1:29070155:29070156:+_ENSG00000198492_ENST00000541996|hu_mus|FALSE|FALSE (ssRNA)
RNA: GGGAGUUCUACAGUCCGACGAUCACAGCAGAUUUCAUCUCUGCAACUCCACAGAAGUGUCCACUGCCGUUGACACUGAAAAGUAAGUACACGGGACCCUUCCCAUUCAUGGAACGAUAGGCGGCAUCCAGUCUCUUGUUACCACAACAGAGGAUUGAGCAUCA
B2: 181043437_181043557_507_CDS_ENSMUSG00000027581_ENSMUST00000103045|mouse|control|control (ssRNA)
RNA: GGGAGUUCUACAGUCCGACGAUCCUCAGCUGCCUCCAGCCGCUUCUGCAGCUCUUCCAAGGAAGCAUCCUUCCUCUUGGGAGGAGAAGAGAGCACAGGGCUCUCUGGAGAUAGGUCAGAAGGAGACUUGAGGAUGACCUCGAACAACAGAGGAUUGAGCAUCA
B3: 171624459_171624579_2671_3pUTR_ENSMUSG00000026678_ENSMUST00000027997|mouse|control|control (ssRNA)
RNA: GGGAGUUCUACAGUCCGACGAUCGAUGGCAUAAUUUGGUAAAUCUCUAGAAGGGAGUGCUUGUUAGCUUAUCAAUUGAUUUGUUAAUGGAUGCCUACUGCUCUUCAGGAAAUAAUCGAAUCCUUCUCAUAGAAAUGGAUUUUACAACAGAGGAUUGAGCAUCA
B4: chrX:71549762:71549763:+_ENSMUSG00000019087_ENSMUST00000019231|mus_mus|motif|central (ssRNA)
RNA: GGGAGUUCUACAGUCCGACGAUCCCAGUGUACCACUCACUCUUAACACAUCACCCCUCCCCCCCAAAAAACAUAACAGCGGAGCUGGACAGACAGUCAAGUAGUCUUUCCACACCUCGCAAAUUCAAGGAACCUCAAGUUCAUCAACAGAGGAUUGAGCAUCA
B5: 37435813_37435933_5862_3pUTR_ENSMUSG00000026915_ENSMUST00000028279|mouse|control|control (ssRNA)
RNA: GGGAGUUCUACAGUCCGACGAUCUACUGAUUCUGAUAUCCUAGCUCCUUGAACAAGACAGUGCCCUGUCAUUUUGACUCUCCUUAGAUAGUGUUCCUACAACUGAAUUGUUAUAUUCAAGCAGGUGCCUCUGUUAUGUAUAAACAACAGAGGAUUGAGCAUCA
B6: 77214880_77227188_734_CDS_ENSG00000127947_ENST00000248594|human|control|control (ssRNA)
RNA: GGGAGUUCUACAGUCCGACGAUCGAAGUAGUCUGUUCUUGCUUGUUCAUCCUCACAAGAAAUUUUAAAUGGUGCAAACGUUAUGGGGUCUUCUCCAUACAAAGGCCAAUAGCGCUCACAUUUUUUCCUUCCCAUCUCAAAUUCCAACAGAGGAUUGAGCAUCA
B7: chr2:76468371:76468372:-_ENSMUSG00000002731_ENSMUST00000002808|mus_hu|FALSE|FALSE (ssRNA)
RNA: GGGAGUUCUACAGUCCGACGAUCUGAGGAGAUAAUUAAAUCUGGAGUGUUGAUGGAAUCUAUGAAGAGAUUUAGAAACAAGACAUAAACACUACGGUAAAAGUUUUACUUGGGAAGGGGCCAGAGGGGAACUUUUUAUGUGCUCAACAGAGGAUUGAGCAUCA
B8: chr4:95690885:95690886:+_ENSMUSG00000028572_ENSMUST00000156910|mus_hu|FALSE|FALSE (ssRNA)
RNA: GGGAGUUCUACAGUCCGACGAUCUUUAGAAAAUGUUAAAUACCAUGCUAAAAUAUUUUCAAAGGCUUAUUUUAUUUUACCAGAAGUCACAGGCAAGCAGACACUACAAGAAUAUAUGAAAAUGAAACUCAACAAUAUAACUGUCAACAGAGGAUUGAGCAUCA
B9: 56308798_56309970_2096_CDS_ENSG00000134852_ENST00000309964|human|control|control (ssRNA)
RNA: GGGAGUUCUACAGUCCGACGAUCACUCUGAGUUGAUGUACUCUGUAAAGUCUGUUGUUGUAUCAUGUGCUGAGUUGUGCCAAUGUGUCCAGUAUUCAUUCCACUUUGAAUCUGGUUAGUAGGAACAACUUGGCCUUGCAUAUUCAACAGAGGAUUGAGCAUCA
B10: 31027585_31033313_607_CDS_ENSMUSG00000000194_ENSMUST00000056433|mouse|control|control (ssRNA)
RNA: GGGAGUUCUACAGUCCGACGAUCAAAGAAGAACUGAAAUGAGACCACCCCGUCAUUCUUGUGAAUUGAGAAGGAUCGCUCUGUGAUAGCCUUUGAGUCCACUGUACUUCGUCCAGCCUUGAAACCAUCGAGGGUUCUCCGAGCCAACAGAGGAUUGAGCAUCA
B11: chr2:216981417:216981418:+_ENSG00000079246_ENST00000392132|hu_hu|hu_hu_hu_mus_True|8_58 (ssRNA)
RNA: GGGAGUUCUACAGUCCGACGAUCCUGAUACUGGUCCUUGCCAGCAAGGGCAUUAUCAGUGCCAUCUGUGCCAUAGAGGACUAAAGCAAUCUCAUCUUUGCUCUCCGAAAAUACCUGUCGUUGGACAAACAUGGUUAUCACUUUCAACAGAGGAUUGAGCAUCA
B12: 85930467_85930587_296_CDS_ENSG00000153904_ENST00000284031|human|control|control (ssRNA)
RNA: GGGAGUUCUACAGUCCGACGAUCCGUCUCCUCGCACACCACGGCCACGUCCUCCACGAAGACGCAGUCCGGAAGGCUCUCGUCGGCCGGCAGCUCCACCACCUGCAGCCCCAGCUUGCUGCCCAGCACGCCCACGUAGAGCUGCAACAGAGGAUUGAGCAUCA
B13: 72132853_72133131_1361_CDS_ENSG00000140829_ENST00000268482|human|control|control (ssRNA)
RNA: GGGAGUUCUACAGUCCGACGAUCAAUUCCUUCUUCGCCCUCCUCACGUCUUCCUCGGCCCCUGGACAGACGCGGGGUGGACCCCAAGUGUCUUCUGUCAUCGGCCCACUCGUUAUAUUUGUAGGAGGGAGUUGGCAGAGGCGUCAACAGAGGAUUGAGCAUCA
B14: 70196805_70196925_1599_CDS_ENSG00000138346_ENST00000358410|human|control|control (ssRNA)
RNA: GGGAGUUCUACAGUCCGACGAUCCUUCACAUAUCCUCUAGACAAAGCAAACAGUGACCUUUCUUCUCCACUUACAAUAACUCUGUCACCUGCCAUUAGAUUUGUGACAGGUAUGGCACCAUGUUUACAUUGGAAAUUAUGUAACAACAGAGGAUUGAGCAUCA
B15: chr3:9412954:9412955:+_ENSG00000134077_ENST00000452837|hu_mus|hu_hu_hu_mus_False|38_48 (ssRNA)
RNA: GGGAGUUCUACAGUCCGACGAUCGGUUGAUAUCUCUUCUUUGAUGGCUGGAUUUUCAUAAUAGUCCAAGAUAUGUGAAUCUGAAGUAUGGCUAGUGAACUCUUUUUUACCAUCUUUCUCAUCUGCUUUGUCUCCUUGUCCACACAACAGAGGAUUGAGCAUCA
B16: chr1:58468927:58468928:-_ENSMUSG00000026034_ENSMUST00000148330|mus_mus|mus_mus_mus_hu_False|68_98 (ssRNA)
RNA: GGGAGUUCUACAGUCCGACGAUCAAUUACUGAAAAAUGAAAGAUGUACCUUAGCUAUGUACUUAAUUUAAUAAAGCACCCAAACAAAAUAAACAUGGCAAUAUAAAAAUGUUAAGAAUUUACAAAGCUGUACAAAAUAACUUACAACAGAGGAUUGAGCAUCA
B17: 21596471_21596591_2560_3pUTR_ENSG00000124766_ENST00000244745|human|control|control (ssRNA)
RNA: GGGAGUUCUACAGUCCGACGAUCGGGGGUGCAGACAAGUCCGGAAGCUCGUUGGAAGGGGGAGGGGGUCUCUUCAAGCAAAGGGGAGCAAACUCGAAGUCGCUUUUUUUUUUUUGCCAUCAACAACAACAUCAAUAACAACAACAACAGAGGAUUGAGCAUCA
B18: 153593795_153594452_1386_CDS_ENSG00000196924_ENST00000420627|human|control|control (ssRNA)
RNA: GGGAGUUCUACAGUCCGACGAUCCCGCACACCCUUGGGCUGGAGGCCCCGGCCAACCGCCCGGCAGGCACUCGGGUUACAGGCUUGGCCAACAGUGACAGUGUAGGGGCUGCGAGGGAUGGGCACGCCGGCAAACGUGACGUGCAACAGAGGAUUGAGCAUCA
B19: chr1:120503909:120503910:+_ENSMUSG00000064302_ENSMUST00000049404|mus_hu|FALSE|FALSE (ssRNA)
RNA: GGGAGUUCUACAGUCCGACGAUCAUAUAUCACCUUUCGUGGUGUCAGCUGUGAAAGGGGCCCCACACAGACCAUACGCACAAGAAAAUAGGCUAAGGAGGAAGAACACAAAGUAACACCCCACCCCACCCCCAAAUAUGUUAUCAACAGAGGAUUGAGCAUCA
B20: 123607306_123607426_2708_ncRNA_ENSMUSG00000025245_ENSMUST00000165754|mouse|control|control (ssRNA)
RNA: GGGAGUUCUACAGUCCGACGAUCGGUUUGAGUUUAAAAACAAAGCACAACAGUGGAAAAAAGGAGAAUCAGUGCCACACGAGACAGGUACGAGACAGGGGCACAGUGAUUACGCAGUACAUGCUGUAGAAGACAGGCAUCACACAACAGAGGAUUGAGCAUCA
B21: chr3:7442581:7442582:+_ENSMUSG00000027499_ENSMUST00000028999|mus_mus|FALSE|FALSE (ssRNA)
RNA: GGGAGUUCUACAGUCCGACGAUCUGUACUGUACGAUACAAAACGGCGUAAGUAACAGCACUCACACACAGGGACAUAAUGCUAACUGUGCUCUCUGGAUGGUUCUUUUUGUGAGUCAAUACUCCAGCCAGAGAUACUGAAACUCAACAGAGGAUUGAGCAUCA
B22: chr1:168165803:168165804:+_ENSG00000143155_ENST00000367833|hu_hu|FALSE|FALSE (ssRNA)
RNA: GGGAGUUCUACAGUCCGACGAUCAUUCAUUCUGAUAAGCACCCCAUCAAUUCUCAAGAAAAACCGCAACAGCAGGAAAAAGCUAGAAGGCAUUACUCUAAUCUUCACACUCAGGCUUGAAACUCCAUGAUCAUGAAGUUCAUCCAACAGAGGAUUGAGCAUCA

Each binder was assayed against T1, UNK ZnF1-3 (assay: nsRBNS (natural sequence RNA bind-n-seq); RBNS binding buffer (assumed for nsRBNS): 25 mM Tris pH 7.5, 150 mM KCl, 3 mM MgCl2, 0.01% Triton X-100, 500 ug/ml BSA, 20 U/ml SUPERase-In, 4 C; UNK is unkempt and MSI1 is Musashi-1; names of the RNAs are library labels; protein concentration not given here; high values mean tight binding).

Compared with B1, B2 is higher in binding signal: 0.655 enrichment R for the first, 1.04 enrichment R for the second.

Compared with B3, B4 is lower in binding signal: 1.84 enrichment R for the first, 1.57 enrichment R for the second.

First: B5
Second: B6
The binding signal of the first is higher: 0.874 enrichment R for the first, 0.662 enrichment R for the second.

Compared with B7, B8 is lower in binding signal: 2.26 enrichment R for the first, 1.55 enrichment R for the second.

Going from B9 to B10, the binding signal rises from 0.377 enrichment R to 1.21 enrichment R.

Going from B11 to B12, the binding signal rises from 0.779 enrichment R to 0.946 enrichment R.

Compared with B13, B14 is lower in binding signal: 1.16 enrichment R for the first, 0.803 enrichment R for the second.

Compared with B15, B16 is higher in binding signal: 0.367 enrichment R for the first, 1.7 enrichment R for the second.

First: B17
Second: B18
The binding signal of the first is higher: 1.66 enrichment R for the first, 0.846 enrichment R for the second.

Compared with B19, B20 is lower in binding signal: 2.3 enrichment R for the first, 2.04 enrichment R for the second.

Compared with B21, B22 is higher in binding signal: 0.849 enrichment R for the first, 1.8 enrichment R for the second.
